# Values joined by “and” are separate entries in the source; they are usually repeats but may differ in a detail not shown here. Equal values may be shown once. Inconclusive means that the source gave no clear call. Such entries were picked first, then a sample of the others. Potencies of inconclusive entries are doubtful fits and often do not repeat. Some structures have more than one record in an assay (separate samples or runs), and their calls can disagree. Active and inactive are the calls of the source. Calls come from the whole dose curve; as a rule, active = well fitted cell-killing curve with a large enough effect in the repeat runs; inconclusive = weak or mixed curves, or effect the other way; inactive = no such curve, though single readings can be large or run the other way.
# Experiment: qHTS assay for identifying genotoxic compounds that show differential cytotoxicity against isogenic chicken DT40 cell lines with known DNA damage response pathways - wild type cell line (AID 743012); note: nearly all actives have a fitted effect of over 60% in size
# Details: DT40 wild type chicken cells viability, CellTiter-Glo, 40 h; series mostly up to 68.4 µM
# Source text: U.S. Tox21 Program National Center for Advancing Translational Sciences [NCATS] NIH Chemical Genomics Center [NCGC] U.S. Environmental Protection Agency [EPA] National Institutes of Environmental Health Sciences [NIEHS] National Toxicology Program [NTP] U.S. Food and Drug Administration [FDA] Tox21 Assay Overview: DNA repair pathways play a critical role in cellular homeostasis by repairing DNA damage induced by endogenous processes and xenobiotics. Isogenic chicken DT40 cell lines deficient in different DNA repair pathways can be used to identify genotoxic compounds and aid in characterizing the nature of the DNA damage induced. Two DNA repair-deficient cell lines with disrupted genes, Rad54/Ku70 or Rev3, were used to screen the Tox21 10K compound library. Possible genotoxicity was based on the presence of a significant increase in cytotoxicity in one or more of the DNA repair-deficient cell lines compared to that observed in the parental DNA repair-proficient cell line. CellTiter Glo viability assay (Promega, Madison, WI) was used to measure cell viability in these cells after compound treatment. This assay includes the data from the wild type cell line.
# Tox21 Assay Protocol Summary: 300 DT40 wild type cells in 5 uL/well were dispensed into white, solid-bottom 1536-well plates using a Multidrop Combi (ThermoFisher Scientific, Waltham, MA) dispenser. After the assay plates were incubated at 37 C/5% CO2 for approximately 0.5 hour, 23 nL of compounds dissolved in DMSO, positive controls or DMSO only was transferred into the assay plate by a pintool work station (Kalypsys, San Diego, CA). The assay plates were incubated at 37 C/5% CO2 for 40 hours. After 5 uL per well of CellTiter-Glo reagent was added into each well of the assay plates, the plates were incubated for 30 min at room temperature and the luminescence intensity of the plates was measured using a ViewLux (PerkinElmer, Shelton, CT) plate reader.
# Potency is the fitted concentration of half-maximal effect; tags give direction and shape of the fitted curve.
row,SMILES,Potency
1,CC(=O)[O-].CC(=O)[O-].[Hg+2],active: 1.54 µM
2,CN(C)c1ccc(N=Nc2ccccc2)cc1,inactive
3,COP(=S)(OC)Oc1ccc([N+](=O)[O-])c(C)c1,"inconclusive: 77 µM [cytotoxic, single point]"
4,Nc1ccc(Cl)cc1,"inconclusive: 35 µM [rising, partial curve, poor fit]"
5,CC(=O)C(C)(C)C,active: 45 µM
6,COc1ccc(N)cc1N,"inconclusive: 14.1 µM [cytotoxic, full curve]"
7,[N-]=[N+]=[N-],inactive
8,CCCCCCBr,inactive
9,CCCCOC(=O)COC(=O)c1ccccc1C(=O)OCCCC,"inconclusive: 60.8 µM [rising, partial curve, poor fit]"
10,C[C@]12C/C(=C/O)C(=O)C[C@@H]1CC[C@@H]1[C@@H]2CC[C@@]2(C)[C@H]1CC[C@]2(C)O,"active: 29.8 µM and inconclusive: 69.2 µM [cytotoxic, single point]"
11,O=C(O)CCCc1ccc(N(CCCl)CCCl)cc1,"inconclusive: 54.7 µM [cytotoxic, partial curve, poor fit]"
12,Clc1ccc(C(OCCN2CCCCC2)c2ccccc2)cc1 (stereo not given),active: 3.59 µM
13,CCC(=O)OC1(c2ccccc2)CCN(C)CC1,"inconclusive: 32.2 µM [cytotoxic, partial curve]"
14,Cc1cc2c3c(c1)C(c1ccccc1)=N[C@@H](NC(=O)c1ccncc1)C(=O)N3CC2,inconclusive: 68.6 µM [cytotoxic]
15,CCCCN(CCCC)C(=S)S,"inconclusive: 27.3 µM [cytotoxic, single point]"
16,CCCCOC(=O)c1ccccc1C(=O)OCCCC,"inconclusive: 13.7 µM [rising, partial curve, poor fit]"
17,CC(C)N(C(=O)CCl)c1ccccc1,active: 21.7 µM and active: 17.2 µM
18,CCOP(=S)(OCC)SCn1c(=O)oc2cc(Cl)ccc21,"inconclusive: 73.6 µM [cytotoxic, single point]"
19,O=S(=O)(O)O,"inconclusive: 0.0236 µM [rising, single point]"
20,FC(Cl)(Cl)Cl,inactive

row,SMILES,Potency
1,CN1C(=O)CN=C(c2ccccc2)c2cc(Cl)ccc21,"inconclusive: 33.5 µM [cytotoxic, single point]"
2,OCCCBr,"inconclusive: 1.54 µM [rising, full curve, poor fit]"
3,CC(Cl)(Cl)C(=O)O,inactive
4,O=C(NC(=O)c1c(F)cccc1F)Nc1ccc(OC(F)(F)C(F)OC(F)(F)F)c(Cl)c1 (stereo not given),active: 6.68 µM
5,CCOC(=O)C1(c2ccccc2)CCN(CCC(C#N)(c2ccccc2)c2ccccc2)CC1,active: 2.98 µM and active: 5.31 µM
6,CCOC(=O)OC1=C(c2cc(C)ccc2C)C(=O)NC12CCC(OC)CC2 (stereo not given),"inconclusive: 76.9 µM [cytotoxic, single point]"
7,CCCCCCCCCCCC[N+](C)(C)CCOc1ccccc1,active: 1.88 µM and active: 6.11 µM
8,Nc1n[nH]c(N)n1,"inconclusive: 69.8 µM [rising, single point]"
9,CN(C)CCc1c[nH]c2cccc(O)c12,active: 30.3 µM
10,O=C(OC1CCCCC1)c1ccccc1C(=O)OC1CCCCC1,active: 28.8 µM
11,Cc1ccccc1,inactive
12,CCCn1cc[n+](C)c1,"inconclusive: 0.154 µM [rising, partial curve, poor fit]"
13,COc1ccc2c3c1O[C@H]1[C@@H](O)C=C[C@H]4[C@@H](C2)N(C)CC[C@@]341,"inconclusive: 67.5 µM [cytotoxic, partial curve, poor fit] and inactive"
14,Oc1cc(Cl)ccc1Cl,"inconclusive: 0.996 µM [rising, partial curve]"
15,CC(O)(CS(=O)(=O)c1ccc(F)cc1)C(=O)Nc1ccc(C#N)c(C(F)(F)F)c1 (stereo not given),"inconclusive: 31.8 µM [cytotoxic, partial curve]"
16,Cn1cc(-c2ccccc2)c(=O)c(-c2cccc(C(F)(F)F)c2)c1,"inconclusive: 68.6 µM [cytotoxic, single point]"
17,O.O.O.O.O.O.O.O=S(=O)([O-])[O-].[Co+2],inconclusive: 69 µM [cytotoxic]
18,Clc1ccccc1-c1nnc(-c2ccccc2Cl)nn1,"inconclusive: 4.81 µM [rising, partial curve]"
19,N#Cc1cc(Br)c(O)c(Br)c1,"inconclusive: 68.5 µM [cytotoxic, single point] and inconclusive: 52.5 µM [cytotoxic, single point]"
20,Nc1ccc(Cc2ccc(N)c(Cl)c2)cc1Cl,active: 74.4 µM

# From PubChem BioAssay (Tox21)
